Data as given in publication PMC9911399, “Two distinct binding modes provide the RNA-binding protein RbFox with extraordinary sequence specificity”.
Changes are numbered by the printed parent chain; changes in the protein carry UniProt numbers. This is one part of the list.

T1: RBFOX1 RRM RbFoxmut (Fox-RRM*) (Homo sapiens, UniProt Q9NWB1 109-208, R118D;E147R;N151S;E152T)
T1 sequence: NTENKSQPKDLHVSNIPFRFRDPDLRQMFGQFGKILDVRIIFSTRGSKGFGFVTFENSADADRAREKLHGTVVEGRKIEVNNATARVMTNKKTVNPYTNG

B1: ACAUUGU (DNA:RNA)
RNA: GGGAGACCGGAAUUCAGAUUGUCCACAUUGUUUAAAUCCCGUCGUAGCCACCA
DNA 1: CAATCTGAATTCCGGTCTCCC
DNA 2: TGGTGGCTACGACGGGATT
B2: UUCAAGA (DNA:RNA)
RNA: B1 RNA with A25U, C26U, A27C, U28A, U29A, U31A
DNA 1: CAATCTGAATTCCGGTCTCCC
DNA 2: TGGTGGCTACGACGGGATT
B3: CCCAGUU (DNA:RNA)
RNA: B1 RNA with A25C, A27C, U28A, U29G, G30U
DNA 1: CAATCTGAATTCCGGTCTCCC
DNA 2: TGGTGGCTACGACGGGATT
B4: ACGUCAU (DNA:RNA)
RNA: B1 RNA with A27G, U29C, G30A
DNA 1: CAATCTGAATTCCGGTCTCCC
DNA 2: TGGTGGCTACGACGGGATT
B5: UGUUAAA (DNA:RNA)
RNA: B1 RNA with A25U, C26G, A27U, U29A, G30A, U31A
DNA 1: CAATCTGAATTCCGGTCTCCC
DNA 2: TGGTGGCTACGACGGGATT
B6: UGUGGUG (DNA:RNA)
RNA: GGGAGACCGGAAUUCAGAUUGUCCUGUGGUGUUAAAUCCCGUCGUAGCCACCA
DNA 1: CAATCTGAATTCCGGTCTCCC
DNA 2: TGGTGGCTACGACGGGATT
B7: UCGCUAG (DNA:RNA)
RNA: B1 RNA with A25U, A27G, U28C, G30A, U31G
DNA 1: CAATCTGAATTCCGGTCTCCC
DNA 2: TGGTGGCTACGACGGGATT
B8: AUUGCCG (DNA:RNA)
RNA: B6 RNA with U25A, G26U, G29C, U30C
DNA 1: CAATCTGAATTCCGGTCTCCC
DNA 2: TGGTGGCTACGACGGGATT
B9: UGCCAAA (DNA:RNA)
RNA: B6 RNA with U27C, G28C, G29A, U30A, G31A
DNA 1: CAATCTGAATTCCGGTCTCCC
DNA 2: TGGTGGCTACGACGGGATT
B10: GACUAUG (DNA:RNA)
RNA: B6 RNA with U25G, G26A, U27C, G28U, G29A
DNA 1: CAATCTGAATTCCGGTCTCCC
DNA 2: TGGTGGCTACGACGGGATT
B11: CGCGCAG (DNA:RNA)
RNA: B6 RNA with U25C, U27C, G29C, U30A
DNA 1: CAATCTGAATTCCGGTCTCCC
DNA 2: TGGTGGCTACGACGGGATT
B12: GCAUAAC (DNA:RNA)
RNA: B1 RNA with A25G, U29A, G30A, U31C
DNA 1: CAATCTGAATTCCGGTCTCCC
DNA 2: TGGTGGCTACGACGGGATT
B13: UAAAUGC (DNA:RNA)
RNA: B1 RNA with A25U, C26A, U28A, U31C
DNA 1: CAATCTGAATTCCGGTCTCCC
DNA 2: TGGTGGCTACGACGGGATT
B14: ACAUUUC (DNA:RNA)
RNA: B1 RNA with G30U, U31C
DNA 1: CAATCTGAATTCCGGTCTCCC
DNA 2: TGGTGGCTACGACGGGATT
B15: UCUAACA (DNA:RNA)
RNA: B6 RNA with G26C, G28A, G29A, U30C, G31A
DNA 1: CAATCTGAATTCCGGTCTCCC
DNA 2: TGGTGGCTACGACGGGATT
B16: UCACAUG (DNA:RNA)
RNA: B6 RNA with G26C, U27A, G28C, G29A
DNA 1: CAATCTGAATTCCGGTCTCCC
DNA 2: TGGTGGCTACGACGGGATT
B17: GGUUGAU (DNA:RNA)
RNA: B6 RNA with U25G, G28U, U30A, G31U
DNA 1: CAATCTGAATTCCGGTCTCCC
DNA 2: TGGTGGCTACGACGGGATT
B18: UCGCCUA (DNA:RNA)
RNA: B6 RNA with G26C, U27G, G28C, G29C, G31A
DNA 1: CAATCTGAATTCCGGTCTCCC
DNA 2: TGGTGGCTACGACGGGATT
B19: CUAAGCU (DNA:RNA)
RNA: B1 RNA with A25C, C26U, U28A, U29G, G30C
DNA 1: CAATCTGAATTCCGGTCTCCC
DNA 2: TGGTGGCTACGACGGGATT
B20: CCCAAGA (DNA:RNA)
RNA: B1 RNA with A25C, A27C, U28A, U29A, U31A
DNA 1: CAATCTGAATTCCGGTCTCCC
DNA 2: TGGTGGCTACGACGGGATT
B21: UAUGCAG (DNA:RNA)
RNA: B6 RNA with G26A, G29C, U30A
DNA 1: CAATCTGAATTCCGGTCTCCC
DNA 2: TGGTGGCTACGACGGGATT
B22: CUUCAUU (DNA:RNA)
RNA: B6 RNA with U25C, G26U, G28C, G29A, G31U
DNA 1: CAATCTGAATTCCGGTCTCCC
DNA 2: TGGTGGCTACGACGGGATT
B23: GUCUCGU (DNA:RNA)
RNA: B1 RNA with A25G, C26U, A27C, U29C
DNA 1: CAATCTGAATTCCGGTCTCCC
DNA 2: TGGTGGCTACGACGGGATT
B24: AUACAAU (DNA:RNA)
RNA: B1 RNA with C26U, U28C, U29A, G30A
DNA 1: CAATCTGAATTCCGGTCTCCC
DNA 2: TGGTGGCTACGACGGGATT
B25: CUAAUUC (DNA:RNA)
RNA: B1 RNA with A25C, C26U, U28A, G30U, U31C
DNA 1: CAATCTGAATTCCGGTCTCCC
DNA 2: TGGTGGCTACGACGGGATT
B26: UUGAACU (DNA:RNA)
RNA: B1 RNA with A25U, C26U, A27G, U28A, U29A, G30C
DNA 1: CAATCTGAATTCCGGTCTCCC
DNA 2: TGGTGGCTACGACGGGATT
B27: CAGGUAG (DNA:RNA)
RNA: B6 RNA with U25C, G26A, U27G, G29U, U30A
DNA 1: CAATCTGAATTCCGGTCTCCC
DNA 2: TGGTGGCTACGACGGGATT
B28: AGGACCC (DNA:RNA)
RNA: B1 RNA with C26G, A27G, U28A, U29C, G30C, U31C
DNA 1: CAATCTGAATTCCGGTCTCCC
DNA 2: TGGTGGCTACGACGGGATT
B29: UAUAACG (DNA:RNA)
RNA: B6 RNA with G26A, G28A, G29A, U30C
DNA 1: CAATCTGAATTCCGGTCTCCC
DNA 2: TGGTGGCTACGACGGGATT
B30: UGAAGCG (DNA:RNA)
RNA: B6 RNA with U27A, G28A, U30C
DNA 1: CAATCTGAATTCCGGTCTCCC
DNA 2: TGGTGGCTACGACGGGATT
B31: GACUUUG (DNA:RNA)
RNA: B1 RNA with A25G, C26A, A27C, G30U, U31G
DNA 1: CAATCTGAATTCCGGTCTCCC
DNA 2: TGGTGGCTACGACGGGATT

target: T1, RBFOX1 RRM RbFoxmut (Fox-RRM*); assay: EMSA; HiTS-Eq, 1 nM pool, 10 min; buffer printed only for the single-RNA assays: 10 mM Tris pH 7.5, 150 mM NaCl, 3.4 mM EDTA, 0.001% NP-40, 30 C; conditions: tags: His6 N-terminal (pET28a); label: 5' 32P
Method in brief: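 These values rest on relative association constants, computed from read-count changes of each RNA species versus the control reaction and normalised to the cognate motif. Reads came from free RNA recovered by 8% native PAGE after purified RbFox RRM (wild type or mutant) at increasing concentrations was equilibrated for 10 min in 50 µL with 1 nM of a 5′-radiolabelled pool with 7 randomized nucleotides and DNA-annealed flanks.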

Binder | binding signal
B1 | 0.159 KA relative to UGCAUGU
B2 | 0.0823 KA relative to UGCAUGU
B3 | 0.0957 KA relative to UGCAUGU
B4 | 0.107 KA relative to UGCAUGU
B5 | 0.11 KA relative to UGCAUGU
B6 | 0.273 KA relative to UGCAUGU
B7 | 0.108 KA relative to UGCAUGU
B8 | 0.118 KA relative to UGCAUGU
B9 | 0.0841 KA relative to UGCAUGU
B10 | 0.0965 KA relative to UGCAUGU
B11 | 0.0806 KA relative to UGCAUGU
B12 | 0.0979 KA relative to UGCAUGU
B13 | 0.0677 KA relative to UGCAUGU
B14 | 0.0703 KA relative to UGCAUGU
B15 | 0.0955 KA relative to UGCAUGU
B16 | 0.0943 KA relative to UGCAUGU

Binder | binding signal
B17 | 0.113 KA relative to UGCAUGU
B18 | 0.095 KA relative to UGCAUGU
B19 | 0.0832 KA relative to UGCAUGU
B20 | 0.0867 KA relative to UGCAUGU
B21 | 0.0975 KA relative to UGCAUGU
B22 | 0.11 KA relative to UGCAUGU
B23 | 0.292 KA relative to UGCAUGU
B24 | 0.0644 KA relative to UGCAUGU
B25 | 0.0596 KA relative to UGCAUGU
B26 | 0.108 KA relative to UGCAUGU
B27 | 0.135 KA relative to UGCAUGU
B28 | 0.0734 KA relative to UGCAUGU
B29 | 0.106 KA relative to UGCAUGU
B30 | 0.1 KA relative to UGCAUGU
B31 | 0.0901 KA relative to UGCAUGU
